The source of these data is paper PMC7819943, “Rice protein-binding microarrays: a tool to detect cis-acting elements near promoter regions in rice”.

The other results are listed elsewhere or left out.

The assay addresses T1, OsWOX13 (Oryza sativa, UniProt Q5QMM3 1-267).
T1 sequence: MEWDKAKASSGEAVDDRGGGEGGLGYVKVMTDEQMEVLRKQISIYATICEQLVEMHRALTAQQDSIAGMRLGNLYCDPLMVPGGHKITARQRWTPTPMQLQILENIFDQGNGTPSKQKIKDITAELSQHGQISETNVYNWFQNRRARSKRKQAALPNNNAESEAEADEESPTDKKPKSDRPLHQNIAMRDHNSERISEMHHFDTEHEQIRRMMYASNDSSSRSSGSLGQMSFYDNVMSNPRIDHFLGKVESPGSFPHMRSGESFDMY
Description: protein-binding microarray (RPBM); PBS, 2% BSA, 51.3 ng/ul salmon testes DNA, 50 uM zinc acetate, 200 nM TF, 25 C, 1 h; high values mean tight binding. The settings on record: protein: recombinant; tags: N-terminal polyhistidine and DsRed monomer fusion (pET32a); label: CyDye5-dUTP incorporated in the synthesized complementary strand; 3' TTTTT single-stranded linker to array surface; dsDNA, one strand shown. An outline of the steps:
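Polyhistidine-tagged DsRed fusions of transcription factors, joined at the N-terminus, were expressed in E. coli BL21-CodonPlus and isolated on Ni–NTA. They were incubated at 200 nM for 1 h at 25 °C on a custom Agilent array, double-stranded and BSA-blocked, in PBS with 2% BSA, salmon testes DNA and 50 µM zinc acetate. The binding signal is per-feature fluorescence intensity (arbitrary units) read on an Axon 4000B scanner after washing.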
Consider “GCATATAACATAATTGGGGATACATGGTCCACCTGCATGGCGGAGTCACCTAGTGCAG”, for which the binding signal is 15500 fluorescence intensity (a.u.).
Take “ACAGTAATTAGTCAGTTTCAACTCGGTTAGACTGATGTTTCGGAGTCACCTAGTGCAG”: the binding signal is 33500 fluorescence intensity (a.u.).
For “ATTCCATAATGGATATGTTTACTCCATTCGTCCTTGAAATCGGAGTCACCTAGTGCAG”, the binding signal is 3260 fluorescence intensity (a.u.).
Turning to “TGATTGATAATAATTTAATTTGATGACACTATCCATACATCGGAGTCACCTAGTGCAG”, the binding signal is 34200 fluorescence intensity (a.u.).
Consider “CAAAATTATTAACACTAAAATTTGAAAATGTTGATATGTTCGGAGTCACCTAGTGCAG”, for which the binding signal was 16800 fluorescence intensity (a.u.).
With “CTCCCACTTTTCCATCACATCACATTACATCCAAAACTTTCGGAGTCACCTAGTGCAG”, the binding signal was 3700 fluorescence intensity (a.u.).
For the sequence “TTATACACTGGTTGTAGATTGACAATATGTACTAAGAAATCGGAGTCACCTAGTGCAG”, the binding signal is 11300 fluorescence intensity (a.u.).
As to “AGAAAATTAGAAACAAAACATCAAATATAATTTGACTTTTCGGAGTCACCTAGTGCAG”, the binding signal is 5160 fluorescence intensity (a.u.).
“ATTTAGACAGGTTCCAACCTCCTTGATAACAGTTAAAACCCGGAGTCACCTAGTGCAG”: the binding signal was 7950 fluorescence intensity (a.u.).
Take “GAACTAGCTTAATTAAACCACAATTAGAATATATGTAGGACGGAGTCACCTAGTGCAG”: the binding signal was 3750 fluorescence intensity (a.u.).
In the case of “CTATTAAGTTGACTGTAAATAATTTGGAGCCAGCAGTTTGCGGAGTCACCTAGTGCAG”, the binding signal is 8660 fluorescence intensity (a.u.).
In the case of “TATGAATGACATATAAACAGATAATCGTGTTCACCGAATGCGGAGTCACCTAGTGCAG”, the binding signal was 20900 fluorescence intensity (a.u.).
As for “AACAGTTGCATGATTGCAACGAAGAGAGACTAACACGAACCGGAGTCACCTAGTGCAG”, the binding signal is 4190 fluorescence intensity (a.u.).
As for “CCAAATTCATCTTAATGTTTGATTATGATCAGCATCTTATCGGAGTCACCTAGTGCAG”, the binding signal was 4610 fluorescence intensity (a.u.).
In the case of “ATTAAATTAGAAATAAATATTTTAATAGATACGGTGTCCACGGAGTCACCTAGTGCAG”, the binding signal is 35000 fluorescence intensity (a.u.).
To “TATAAACTAGTTAATTGTAGATTTATAGAATTTAACTACTCGGAGTCACCTAGTGCAG” belongs 11300 fluorescence intensity (a.u.); to “GGTAATGATGTGGCGAATGATGACATCACACAAAATGATACGGAGTCACCTAGTGCAG”, 5120 fluorescence intensity (a.u.); to “CTCCTTACAAATTTTGAAGATAATTTCGTAACACTTGGGGCGGAGTCACCTAGTGCAG”, 7610 fluorescence intensity (a.u.).
For “ATGCTACAGTAGTGATTGAGAGTTTGTAATCAAATCAATTCGGAGTCACCTAGTGCAG”, the binding signal is 18100 fluorescence intensity (a.u.).
For “CGTTGATTATTGCGATCGAAACCGTCTCATATAATTTTGCCGGAGTCACCTAGTGCAG”, the binding signal was 52500 fluorescence intensity (a.u.).
For the sequence “CTTGTATGATTGTATCCCCTGACATGGCACCACACGCAGTCGGAGTCACCTAGTGCAG”, the binding signal is 9110 fluorescence intensity (a.u.).
“TTATTAGTACTAATCAAGAAACAAACTAAATGGTACCCCGCGGAGTCACCTAGTGCAG”: the binding signal is 7120 fluorescence intensity (a.u.).
To “AAAGATTGAGGGGAAGGGTGATAGGTGGGCCCCACGTGGGCGGAGTCACCTAGTGCAG” belongs 5510 fluorescence intensity (a.u.).
As for “AAACTTTTACACCTGATGATAGATTTGTAATAGATGTTTGCGGAGTCACCTAGTGCAG”, the binding signal was 3730 fluorescence intensity (a.u.).
Consider “CTCGCTGATTGGAGTTGCGCTTAGCCGTCGTAATAGTCATCGGAGTCACCTAGTGCAG”, for which the binding signal was 40900 fluorescence intensity (a.u.).
For “ACTGTGAAACATCTAATTGAGCAGGTAAACAGCTCTATCACGGAGTCACCTAGTGCAG”, the binding signal is 5470 fluorescence intensity (a.u.).
To “ATAGCCAATCATGTACTTCCTGTTTCGGCGCAAGAGGTCGCGGAGTCACCTAGTGCAG” belongs 13400 fluorescence intensity (a.u.); to “TTTTAAATGGGCTAGAATAGTAATTGCTACCATTTGAGGTCGGAGTCACCTAGTGCAG”, 5540 fluorescence intensity (a.u.); to “GGTTTAACTGAACATGACAGGTCGTGTACAAATTCAAGATCGGAGTCACCTAGTGCAG”, 17100 fluorescence intensity (a.u.).
On to “CCTAATGGCCATAATTTAACAATGTGGTGCTACAGTAAACCGGAGTCACCTAGTGCAG”, for which the binding signal is 14900 fluorescence intensity (a.u.).
Regarding “ATTTTATCTATTTATCTATCTATTTATGCATGGACAAGGGCGGAGTCACCTAGTGCAG”, the binding signal is 5520 fluorescence intensity (a.u.).
Turning to “ACTCCTCAAACAGGTTGATTGGTCATTTGCACATTAAGGACGGAGTCACCTAGTGCAG”, the binding signal is 28900 fluorescence intensity (a.u.).
Regarding “ACTCTGTTATCTCACATCTGTTAATTCTCCTGTATGGTATCGGAGTCACCTAGTGCAG”, the binding signal is 3410 fluorescence intensity (a.u.).
“TACTTCAAAATACTGATTACATCAATCAGAATTGCCACTGCGGAGTCACCTAGTGCAG”: the binding signal was 8020 fluorescence intensity (a.u.).
Regarding “CTAAGCAAATCATAATAATCAGAACATTTTCTATAATCATCGGAGTCACCTAGTGCAG”, the binding signal was 3830 fluorescence intensity (a.u.).
Regarding “GATAACCAATTGTTTAATTATTCTTAGTCCCTTATCTTATCGGAGTCACCTAGTGCAG”, the binding signal is 8430 fluorescence intensity (a.u.).
To “GCAATTCCAATCTTATTGGAATTAATTGTCAACCCATCCTCGGAGTCACCTAGTGCAG” belongs 15400 fluorescence intensity (a.u.); to “TGAAGCTGATGTTGATTAAGATGTGATGTGTATACGTGAACGGAGTCACCTAGTGCAG”, 3850 fluorescence intensity (a.u.).
Take “GTATAATCACTAATTGATTAGATTCAAACTGTTGAATTGACGGAGTCACCTAGTGCAG”: the binding signal was 43900 fluorescence intensity (a.u.).
On to “CCGGCTGATCGAATAATTTGCCGACGAAATCGACCACGCTCGGAGTCACCTAGTGCAG”, for which the binding signal was 3330 fluorescence intensity (a.u.).
For “GGTAATTACAATGTACATGAATGCAATTATGGAGTGAAAACGGAGTCACCTAGTGCAG”, the binding signal was 13500 fluorescence intensity (a.u.).
To “AACTAAACATAATCTTTGAAAAGTTTGATTTTGAACACGGCGGAGTCACCTAGTGCAG” belongs 6770 fluorescence intensity (a.u.).
